Laboratory results as given in PubChem BioAssay AID686971 (National Center for Advancing Translational Sciences (NCATS), 2013).
The campaign covered roughly 360,000 compounds. About 7,500 (2.1%) were called active. This list was built around the results that the source calls inconclusive (neither active nor inactive); the mix of calls is not that of the screen. Calls come from the whole dose curve; as a rule, active = well fitted cell-killing curve with a large enough effect; inconclusive = small, poorly fitted or top-dose-only effect, or effect the other way, or another doubt; inactive = no such curve, though single readings can be large or run the other way. No potency is given beside an inconclusive call; the fits are too rough.

Experiment: qHTS for induction of synthetic lethality in tumor cells producing 2HG: qHTS for the HT-1080-IDH1KD cell line;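 for activity, negative = toxicity: 0% = DMSO wells and -100% = cell-free medium wells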
Details: HT-1080 IDH1 knockdown viability, ATP luminescence, 48 h; activity, negative = toxicity: at 46.1 µM (top of the series) unless noted
Summary of the method: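 Viability of IDH1-knockdown HT-1080 fibrosarcoma cells was assessed by CellTiter-Glo after 48 h at 37 °C with titrated compound; concentration-effect curves were classified by fit quality and response size.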
Potency is the fitted concentration of half-maximal effect; tags give direction and shape of the fitted curve.

| Compound | Potency | activity, negative = toxicity |
| --- | --- | --- |
| C#CCOCCOCCOCCNc1nc(N2CCN(C(=O)CCCCCCCCCCNC(=O)Cn3cc(C[C@@H](C)O)nn3)CC2)nc(N2CCN(C(=O)CCCCCCCCCCNC(=O)Cn3cc(C[C@@H](C)O)nn3)CC2)n1 | inconclusive [cytotoxic, single point] | – |
| Cc1ccc(NC(=S)Nc2nc(CC(=O)Nc3ccccc3)cs2)cc1 | active: 7.94 µM | – |
| Cc1cccc2cc(CN(CC3CCCO3)C(c3nnnn3Cc3ccco3)C(C)C)c(=O)[nH]c12 (stereo not drawn) | inconclusive [cytotoxic, single point] | – |
| CCOC(=O)CN1C(c2ccc(O)cc2)Nc2ccc(Br)cc2C1c1ccccc1 (stereo not drawn) | inconclusive [cytotoxic, single point] | – |
| CCN(CC)c1nc(C#N)cc(-c2ccc(OC)cc2)n1 | inconclusive [cytotoxic, single point] | – |
| CCCNC(=O)C1(C)CCN(Cc2ccc3ccccc3c2Br)C1 (stereo not drawn) | inconclusive [cytotoxic, single point] | – |
| Cc1cn([C@H](C(=O)NCCCCCCCCCCC(=O)N2CCNCC2)[C@@H](C)O)nn1 | inconclusive [cytotoxic, full curve, poor fit] | – |
| COC(=O)c1ccc(N=C2SCC(=O)N2C)cc1 | – | inactive: 5.29% |
| Cn1nc(-c2ccccc2)c2ncc(C(F)(F)F)cc21 | – | inconclusive: 8.8% [cytotoxic] |
| Cc1nc2ccccc2c2oc(C(=O)N3CCN(c4ccc([N+](=O)[O-])cc4)CC3)cc12 | – | inactive: 5.51% |
| Cc1ccc(Nc2nnc(SC3CCOC3=O)s2)c(C)c1 (stereo not drawn) | – | inactive: 14.4% |
| COC(=O)N/N=C/c1cn(CCCOc2ccc(C)cc2)c2ccccc12 | inconclusive [cytotoxic, single point] | – |
| Cc1cc(Cl)ccc1NC(=S)NCc1ccc(F)cc1 | inconclusive [cytotoxic, partial curve, poor fit] | – |
| CC(=O)Nc1cccc(-c2ccnc3c2CC(C)(C(=O)NCc2ccc(F)c(F)c2)O3)c1 (stereo not drawn) | inconclusive [cytotoxic, partial curve, poor fit] | – |
| CC(C)C1N=C2c3ccccc3N=C(SCC(=O)c3ccc(O)c(O)c3)N2C1=O (stereo not drawn) | inconclusive [cytotoxic, single point] | – |
| CC(=O)Nc1cc(-c2ccoc2)cn2c(-c3ccccc3)cnc12 | – | inactive: -19.8% |
| Cc1[nH]ccc(=O)c1OCc1c(Cl)cccc1Cl | – | inactive: 2.44% |
| COc1ccc(CN(C)C(=O)c2ccc(OCC(=O)Nc3cccc(C(F)(F)F)c3)c(OC)c2)cc1 | inconclusive [cytotoxic, single point] | – |
| CCCCNC(=O)NNC(=O)c1cc(C)on1 | – | inactive: 26.9% |
| Cc1ccc(NC(=O)C2(C)CCN2Cc2cccc3c2OCO3)cc1O (stereo not drawn) | inconclusive [cytotoxic, single point] | – |
| O=C(COc1ccc(Br)cc1CNCCCN1CCOCC1)Nc1ccccc1 | inconclusive [cytotoxic, partial curve] | – |
| CC(C)C[C@H](NC(=O)c1[nH]cnc1C(=O)N[C@@H](Cc1ccccc1)C(=O)OC(C)(C)C)C(=O)OC(C)(C)C | inconclusive [cytotoxic, single point] | – |
| Cc1ccc(O)c(/C=N/NC(=O)CN2CCCC2)c1 | – | inconclusive: -30.3% [cytotoxic] |
| O=C(NNC(=O)c1ccccc1OCc1ccc(F)cc1)c1ccccc1O | inconclusive [cytotoxic, partial curve] | – |
| C#CCNC(=O)C[C@@H]1C[C@@]2(C(=O)OC)CCCCC=C2N(CCCCCCCC)C1=O | inconclusive [cytotoxic, single point] | – |

| Compound | Potency | activity, negative = toxicity |
| --- | --- | --- |
| Cc1cccc(-c2cnc(C(O)Cc3ccccc3)[nH]2)c1 (stereo not drawn) | inconclusive [cytotoxic, partial curve] | – |
| CN1CCC(N(C)C(=O)/C=C/c2cn(-c3ccccc3)nc2-c2cccs2)CC1 | active: 18.4 µM | – |
| Clc1nc(-c2ccccc2)c2ccccc2n1 | – | inactive: -3.7% |
| CC(C)c1ccccc1-n1c(SCc2cc(=O)oc3ccc4ccccc4c23)nnc1-c1cccnc1 | inconclusive [cytotoxic, partial curve] | – |
| CC(NC(=O)c1ccc(N2CCNCC2)c([N+](=O)[O-])c1)C12CC3CC(CC(C3)C1)C2 (stereo not drawn) | inconclusive [cytotoxic, single point] | – |
| COc1ccc(CC(=O)Nc2cccc(SC)c2)cc1OC | – | inactive: -0.591% |
| CN(C)CCNc1ccc2nnn3c4ccc(O)cc4c(=O)c1c23 | active: 20.6 µM | – |
| Cc1ccc(NC2=C(N3CCCCC3)C(=O)c3ccccc3C2=O)cc1 | inconclusive [cytotoxic, single point] | – |
| CCOc1cc(C)nc(N2CCC(C(=O)NC3CC3)CC2)n1 | – | inactive: 8.28% |
| Cc1ccc(NC(=O)c2cccc3c2C(=O)N(C2CCCCC2)C3)cc1 | inconclusive [rising, partial curve] | – |
| CCOC(=O)c1c(-c2ccccc2)csc1NC(=O)c1cc(S(=O)(=O)N2CCOCC2)ccc1C | – | inactive: 3.44% |
| N#Cc1c(N)nc(-c2ccccc2)nc1-c1ccccc1 | inconclusive [cytotoxic, single point] | – |
| Cc1ccc(C(=O)C[n+]2cccc3ccccc32)cc1 | – | inactive: -7.19% |
| CC1=C(C(=O)Nc2cccc(C(=O)NC3CCCCC3C)c2)SCCO1 (stereo not drawn) | – | inactive: -1.41% |
| CCOC(=O)N1CCN(C(=O)CSc2nc3ccccc3c(=O)n2-c2ccccc2)CC1 | – | inactive: 1.77% |
| O=[N+]([O-])/C=C/c1cn(Cc2ccc(F)cc2)c2ccccc12 | active: 11.2 µM | – |
| CO[C@@H]1CN(C)C(=O)c2cc(NC(=O)NC3CCCCC3)ccc2OC[C@@H](C)N(CCc2ccccc2)C[C@@H]1C | inconclusive [cytotoxic, single point] | – |
| OC1CCCN(Cc2ccc3c(c2)Cc2ccccc2-3)C1 (stereo not drawn) | inconclusive [cytotoxic, partial curve] | – |
| CN1OC[C@@H]2CN(C(=O)CCc3ccccc3)[C@H](c3cccc(N4CCOCC4)c3)C[C@@H]21 | – | inactive: 8.29% |
| CCc1ccc(OC2(C)CCN(Cc3ccc4c(c3)OCCO4)C2)cc1 (stereo not drawn) | inconclusive [cytotoxic, single point] | – |
| Cc1cccnc1Sc1c([N+](=O)[O-])ncn1C | inconclusive [rising, partial curve] | – |
| Cc1cc(C)c2nc3nc(C)c(C)cc3c(N)c2c1 | active: 13 µM | – |
| Cc1cccc(C(=O)NCC(=O)NCCCSc2ccccc2)c1 | – | inactive: 1.99% |
| OC(c1cccc(Cl)c1)c1ncc(-c2ccc(C(F)(F)F)cc2)[nH]1 (stereo not drawn) | inconclusive [cytotoxic, single point] | – |
| COc1cc(C)c(C2NC(=O)c3ccccc3N2)cc1C (stereo not drawn) | inconclusive [cytotoxic, partial curve] | – |

| Compound | Potency | activity, negative = toxicity |
| --- | --- | --- |
| CC(Nc1c([N+](=O)[O-])c(=O)oc2ccccc12)C(Cl)c1ccccc1 (stereo not drawn) | inconclusive [cytotoxic, single point] | – |
| CNC[C@H](CC1CCCCC1)NC[C@H](CO)NCC1(c2ccccc2)CC1 | inconclusive [cytotoxic, partial curve] | – |
| N#CCCCCN1CCCC1 | – | inactive: 14.2% |
| N=c1n(CCN2CCCCC2)c2ccccc2n1CC(=O)c1cccs1 | inconclusive [cytotoxic, partial curve] | – |
| FC(F)C(F)(F)Oc1cccc(Nc2nccn3c(-c4ccc5ccccc5c4)cnc23)c1 | inconclusive [cytotoxic, single point] | – |
| Cc1cc(=O)oc2cc(OCC(=O)NCCc3ccccc3)ccc12 | – | inactive: 10.2% |
| CCOC(=O)CNc1nc(C(C)(C)C)nc2c1nnn2Cc1ccccc1 | inconclusive [cytotoxic, single point] | – |
| COc1ccc(C(C)=O)cc1CC(=O)Nc1ccccc1-c1ccccc1 | – | inactive: -1.83% |
| Cc1cc(S(=O)(=O)NCC(c2ccccc2)c2ccccc2)ccc1-n1cnnn1 | – | inactive: -10.8% |
| O=C(Nc1cccs1)Nc1c(F)cc(F)cc1Br | – | inactive: -7.76% |
| Cc1cc(NCCCn2ccnc2)n2nc(C)c(-c3ccccc3)c2n1 | inconclusive [cytotoxic, single point] | – |
| COCCNC(=S)NC1CC2CCCC(C1)N2Cc1cccs1 (stereo not drawn) | – | inactive: 20.6% |
| C=CCNC(=S)N1CCN(Cc2ccccc2)CC1 | – | inactive: -0.202% |
| Nc1nc(NCc2ccco2)nc(Nc2cccc(F)c2)c1[N+](=O)[O-] | – | inactive: 7.76% |
| O=[N+]([O-])c1ccc(O)c(/C=N/NC(=S)Nc2ccc(Cl)cc2Cl)c1 | active: 23.1 µM | – |
| COc1ccccc1NC(=O)Cn1nnc(-c2ccccc2NC(=O)c2cc3ccccc3oc2=O)n1 | inconclusive [cytotoxic, single point] | – |
| CC(C)c1ccc(NC(=S)NC2CCCCCC2)cc1 | inconclusive [cytotoxic, partial curve] | – |
| Cc1cccc(-n2ccnc2SCC(=O)Nc2nnc(C)s2)c1 | inconclusive [cytotoxic, single point] | – |
| CS(=O)(=O)Nc1cccc(NC(=O)C2Cc3c(-c4ccccc4)ccnc3O2)c1 (stereo not drawn) | inconclusive [cytotoxic, full curve] | – |
| CCN1CCN(c2ccc(S(=O)(=O)N3CCCCC3)cc2NC(=O)/C=C/c2ccc([N+](=O)[O-])cc2)CC1 | active: 16.4 µM | – |
| COc1ccc(NC2CCCN(C(=O)C3(C)CCCCC3)C2)cc1 (stereo not drawn) | – | inactive: 0.194% |
| COc1ccc(-n2c(C)cc(-c3cn4cccc(C)c4n3)c2C)cc1 | – | inactive: -1.88% |
| O=C1C(=Cc2cn(-c3ccccc3)nc2-c2ccc(OCc3ccccc3F)cc2)SC(=S)N1CCS(=O)(=O)O | – | inconclusive: -30.1% [cytotoxic] |
